The text below walks through data of PubChem BioAssay AID2060908 (Molecular Pharmacology Branch, DTP, NCI, 2025).

The viability, T/C is the ratio of treated to control. One may read the IC50 as the concentration needed to halve the response being measured.

Structures are written as SMILES. Certain results were filed several times, with different values. This is not the full list of results. The source may hold further records. Values given together repeat one measurement in other runs, samples, wells, individuals or studies. Marks such as (2×) give the number of equal values in this list. Marks such as [2022-09] give the month of the run.

For the assay, the system named is 186277-243-T-J2-PDC complex spheroids, viability. The assay can be described thus: Anticancer human tumor 186277-243-T-J2-PDC patient-derived colon adenocarcinoma cell line growth inhibition [RAS]. The conditions noted are these: for viability, T/C: stronger effect = lower value; for IC50: compound alone. The text has this:
RAS pathway inhibitors in Combinations in Complex Spheroids
A high-throughput screen of multi-cell type tumor spheroids was designed to identify active combinations of RAS pathway inhibitors and targeted small molecules. Complex spheroids include a stromal component modeled by human endothelial cells (HUVEC) and fibroblasts modeled by human mesenchymal stem cells (MSCs). The concentration ranges selected for each drug and investigational agent were based upon clinically achievable concentrations if the clinical Cmax of the agent was known.
Compounds. The drugs and investigational agents: abemaciclib (NSC768073), cobimetinib (NSC768068), divarasib (GDC6063, NSC841802), docetaxel (NSC628503), GDC-1971 (RLY-1971, NSC841576), gemcitabine (NSC613327), inavolisib (NSC800729), ipatasertib (NSC767898), KB-0742 (NSC834161), MRTX-1133 (NSC836407), osimertinib (NSC779217), RMC-4630 (NSC839698), RMC-6236 (NSC851965), RMC-6291 (NSC852671), Ro-3306 (NSC812927), sapanisertib (NSC764658), SN-38 (NSC673596), staurosporine (NSC755774), SY5609 (NSC837396), and tovorafenib (DAY101, NSC766906), were obtained from the National Cancer Institute (NCI) Developmental Therapeutics Program Chemical Repository. The FDA-approved anticancer drug set is available from the NCI Developmental Therapeutics Program. […] The stock solutions were prepared in dimethyl sulfoxide (DMSO, Sigma-Aldrich, St. Louis, MO, cat. D2650) at 800-fold the tested concentration and stored at -70 degrees C prior to their use. All drugs and investigational agents were tested over a range starting from a high concentration at or near the clinical Cmax and decreasing in half-log increments. If the clinical Cmax for an agent had not been determined, the highest concentration tested was 10 microM.
Cell Culture. All cells were maintained in an incubator at 37 degrees C and 5% CO2 with 95% humidity. The PDC lines were cultured according to standard operating procedures established by the NCI PDMR. All PDCs were thawed and cultured in Matrigel-coated flasks prepared with a working solution of 1X Ham's F-12 nutrient mix, without supplementation (Invitrogen, Waltham, MA, cat. 11765054), 100 U/mL penicillin-streptomycin (Invitrogen, cat. 15140122), and 2.5% Matrigel (Corning Inc., Corning, NY, cat. 354248) for the first three passages. The 362531-283-R-J2-PDC and 782815-120-R-J1-PDC lines were cultured in 6C/Colon 1B media, which includes advanced DMEM/F-12 (Thermo Fisher Scientific, cat. 12634028), 10 mM HEPES (Thermo Fisher Scientific, cat. 15630080), 1X GlutaMAX supplement (Thermo Fisher Scientific, cat. 35050061), 0.1 mg/mL primocin (InvivoGen, San Diego, CA, cat. ant-pm-2), 10% defined fetal bovine serum, heat inactivated (HyClone Laboratories Inc., Logan, UT, cat. SH30070.03HI), 50% L-WRN conditioned media (ATCC, cat. CRL-3276), 1.25 mM N-Acetyl-L-cysteine (Sigma-Aldrich, cat. A9165), 10 mM nicotinamide (Sigma-Aldrich, cat. N0636), 1X B-27 supplement (Thermo Fisher Scientific, cat. 17504044), 1X N-2 supplement (Thermo Fisher Scientific, cat. 17502048), 50 ng/mL human EGF (Thermo Fisher Scientific, cat. PHG0311), and 10 microM Y-27632 dihydrochloride (Tocris Bioscience, cat. 1254). The K12877-001-R-J1-PDC line was cultured in 6I media, which includes all 6C/Colon 1B media plus 10 ng/mL human FGF-10 (PeproTech, cat. 100-26), 1 ng/mL human FGF-2 (PeproTech, cat. 100-18B), 1 µM prostaglandin E2 (Tocris Bioscience, cat. 2296), […] hydrocortisone (Sigma-Aldrich, cat. H4001), and […] bovine insulin (Sigma-Aldrich, cat. I6634). The K86415-001-R-J1-PDC line was cultured in 6D media, which includes all 6C/Colon 1B media components minus the L-WRN conditioned media. The 485176-168-R4-J1-PDC was cultured in PANC media, which includes all 6C/Colon 1B media plus 100 ng/mL human FGF-10 (PeproTech, cat. 100-26), 500 nM SB-431542 (Selleckchem, cat. S1067), and 10 nM gastrin (Tocris Bioscience, cat. 3006). […]
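Note: spheroids exposed to compounds for 7 days before viability read.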

As to `NC1c2ccccc2OC12CCN(c1cnc3c(N4CCCc5ncccc54)n[nH]c3n1)CC2` (stereo not given), the viability, T/C is 93.3%, 95.3% [2024-05] and 124%, 99.7% [2024-06] (compound alone 0.0316 µM); 78.1%, 104% [2024-05] and 91.4%, 114% [2024-06] (compound alone 0.1 µM); 118%, 125% [2024-05] and 84.2%, 77% [2024-06] (compound alone 1 µM); 100%, 107% [2024-05] and 105%, 73.8% [2024-06] (compound alone 3.16 µM).

As to `CCn1c(-c2cccnc2C(C)OC)c2c3cc(ccc31)N1CCOC(CC(NC(=O)C(C(C)C)N(C)C(=O)C3(F)CCN(C(=O)C#CC(C)(C)N(C)C)CC3)C(=O)N3CCCC(N3)C(=O)OCC(C)(C)C2)C1` (stereo not given), the viability, T/C was 92.9, 97, 105, 92.2, 108, 116, 88.4, 100% (compound alone 0.00949 µM) and 94.9, 100 (2×), 114, 95.2, 118, 91.9, 104% (compound alone 0.0949 µM).

Take `CC1(C)CCC(Nc2ncc(C(F)(F)F)c(-c3c[nH]c4c(P(C)(C)=O)c(C#N)ccc34)n2)CN1` (stereo not given): the viability, T/C (compound alone 0.03 µM) is 80.8%, 87.7% [2024-05] and 61.1%, 73.1% [2024-06].

With `CC1(O)CCCC1n1c(=O)c(C(F)F)cc2cnc(NC3CCN(S(C)(=O)=O)CC3)nc21` (stereo not given), the viability, T/C (compound alone 0.316 µM) was 114%, 124% [2024-05] and 96.5%, 92.7% [2024-06]; the viability, T/C (compound alone 1 µM) is 87.2%, 108% [2024-05] and 81.9%, 80% [2024-06].

Consider `Cc1nc(N2CCC3(CC2)COC(C)C3N)c(CO)nc1Sc1ccnc(N)c1Cl` (stereo not given), for which the viability, T/C by setting is: (compound alone 0.1 µM) 119%, 95.6% [2024-05] and 98.1%, 93% [2024-06]; (compound alone 10 µM) 143%, 124% [2024-05] and 92.8%, 82.2% [2024-06].

Regarding `CCN1CCN(Cc2ccc(Nc3ncc(F)c(-c4cc(F)c5nc(C)n(C(C)C)c5c4)n3)nc2)CC1`, the viability, T/C was 92.2%, 95.6% [2024-05] and 122%, 127% [2024-06] (compound alone 0.00316 µM); 140%, 114% [2024-05] and 128%, 134% [2024-06] (compound alone 0.0316 µM); 175%, 156% [2024-05] and 107%, 134% [2024-06] (compound alone 0.316 µM); 123%, 125% [2024-05] and 92.9%, 102% [2024-06] (compound alone 1 µM).

With `CC(Nc1ccc2c(c1)OCCn1cc(N3C(=O)OCC3C(F)F)nc1-2)C(N)=O` (stereo not given), the IC50 is 5.98 µM, 1.22 µM [2024-05] and 728 nM, 823 nM [2024-06]. Besides, the viability, T/C (compound alone 3.16 µM) is 98.3%, 37.6% [2024-05] and 29.6%, 36.3% [2024-06].

With `CCn1c(-c2cc(N3CCN(C)CC3)cnc2C(C)OC)c2c3cc(ccc31)-c1csc(n1)CC(NC(=O)C1CC1C)C(=O)N1CCCC(N1)C(=O)OCC(C)(C)C2` (stereo not given), for the setting “compound alone 0.003 µM”, the viability, T/C is listed as 109, 103, 96.8, 102, 85.5, 105, 113, 100%.

As for `C=CC(=O)N1CCN(c2nc(OCC3CCCN3C)nc3c(F)c(-c4nc(N)cc(C)c4C(F)(F)F)c(Cl)cc23)C(C)C1` (stereo not given), the viability, T/C (compound alone 0.00316 µM) was 93.2%, 107% [2024-05] and 98.3, 107, 93.5, 91.7, 83.7, 91.8, 92.2, 116, 109, 97.5% [2024-06]; the viability, T/C (compound alone 0.01 µM) was 93.6%, 70.9% [2024-05] and 96.3, 85.9, 95.8, 110, 93.3, 99, 100, 98.7, 88.1, 97.2% [2024-06]; the viability, T/C (compound alone 0.1 µM) was 93.3%, 89.7% [2024-05] and 108 (2×), 110, 113, 78.2, 94, 96, 102, 90.8, 111% [2024-06]; the viability, T/C (compound alone 0.316 µM) is 94.5%, 99.2% [2024-05] and 82.5, 114 (2×), 84.5, 95.9, 101, 93.1, 105, 88.4, 106% [2024-06]; the viability, T/C (compound alone 1 µM) was 107%, 92% [2024-05] and 111 (2×), 82.9, 85.3, 106, 93, 101, 108, 98.5, 104% [2024-06].

Turning to `CC(C)n1nc(-c2ccc3oc(N)nc3c2)c2c(N)ncnc21`, the IC50 is 57.4 nM, 49.1 nM [2024-05] and > 100 nM, 96 nM [2024-06]. The viability, T/C (compound alone 0.0316 µM) was 66.6%, 60.3% [2024-05] and 87.7%, 100% [2024-06].

With `CCc1c2c(nc3ccc(O)cc13)-c1cc3c(c(=O)n1C2)COC(=O)[C@]3(O)CC`, the IC50 was 9.34 nM, 12.7 nM [2024-05] and 29.8 nM, 24.2 nM [2024-06]. Besides, the viability, T/C (compound alone 0.000949 µM) is 135%, 119% [2024-05] and 101%, 123% [2024-06]. Besides, where the note is “compound alone 0.003 µM”, the viability, T/C was 74.5%, 81.3% [2024-05] and 108%, 99.2% [2024-06].

As for `C=CC(=O)Nc1cc(Nc2nccc(-c3cn(C)c4ccccc34)n2)c(OC)cc1N(C)CCN(C)C`, the viability, T/C was 95.3%, 98% [2024-05] and 70.1%, 92.9% [2024-06] (compound alone 0.01 µM); 82.7%, 92.6% [2024-05] and 80.5%, 106% [2024-06] (compound alone 1 µM).
